# In all, about 360,000 compounds went through this assay and about 7,500 (2.1%) were called active. Not shown: some 20% with an inconclusive outcome. Calls follow the shape of the dose curve; as a rule, active = well fitted inhibition curve with a large enough effect; inconclusive = small, poorly fitted or top-dose-only effect, or effect the other way; inactive = flat fitted curve, though single readings scatter. The entries are a selection whose mix differs from that of the whole data set.
# Experiment: Nrf2 qHTS screen for inhibitors; also: nearly all actives have a fitted effect of over 60% in size
# Settings: A549 ARE-Fluc reporter, luciferase luminescence, 18-24 h; series mostly up to 46 µM; activity change, negative = inhibition: at the top concentration
# From the text: NIH Molecular Libraries Probe Production Network [MLPCN]
# NIH Chemical Genomics Center [NCGC]
# Assay Provider: Shyam Biswal, Johns Hopkins University
# Nrf2 is a transcription factor that maintains cellular redox homoestasis and protects cells from xenobiotics. Nrf2 binds to the antioxidant response element (ARE) to induce gene expression of a broad spectrum of genes that encode for antioxidants. […] Finding a small molecule that act as an inhibitor of Nrf2 function would represent a novel therapeutic target that could lead to improvement in survival of patients undergoing chemo- and/or radio- therapy.
# This is the Nrf2 activity measured in the luminescent read.
# 1. Shibata, T., et al., Genetic Alteration of Keap1 Confers Constitutive Nrf2 Activation and Resistance to Chemotherapy in Gallbladder Cancer. Gastroenterology, 2008.
# 2. Sjoblom, T., et al., The consensus coding sequences of human breast and colorectal cancers. Science, 2006. 314(5797): p. 268-74.
# NCGC Assay Protocol Summary:
# A concentration-response assay was performed with A549 ARE_Fluc cells which are suspended in 5% FBS OPTI-MEM. Five uL were dispensed into 1536-well white TC-treated plate using the Kalypsys dispenser to achieve a density of 5000 cells/well in all columns except column 1. The plate is incubated at 37deg C at 5% CO2 for 2 hours before 23 nL of compounds are added with the Kalypsys pin tool equipped with a 1,536-pin array containing 10-nL slotted pins (FP1S10, 0.457-mm diameter, 50.8 mm long; V&P Scientific). The control compounds Budesonide and Staurosporine are both added at a concentration of 2mM and Budesonide is also added as a 1:10 titration, starting at 200uM, to achieve dose-response. After an 18-24 hour incubation at 37deg C at 5% CO2, 5ul of medium is added to column 1. Afterwards 1ul of 5x of CellTiter-Fluor (Promega) is added to every well. The plate is then incubated at 37deg C at 5% CO2 for 30 minutes before they are read on the ViewLux (Perkin Elmer) for a fluorescent read Ex=405(10)/Em=525(10) for a 3 second exposure, 2x binning, and high gain. Then 3 uL of 3x BugLite is dispensed into all wells and the plate is incubated at ambient room temperature for 15 minutes. Afterwards another ViewLux read is performed using the clear filter to get a luminescent read with the settings of 40 second exposure, 2x binning, and high gain. Cytotoxicity is assessed through the first fluorescent read and then biochemical activity against Nrf2 is measured in the luminescent read.
# % is scaled to controls: 0 for no effect and ±100 for the full control effect; potency is read from the fitted curve at half-maximal effect.
SMILES,"activity change, negative = inhibition",Potency
O=C(Nc1ccccc1)C1=C[C@H](C2CCCCC2)C[C@H](OCc2ccc(CO)cc2)O1,inactive: 9.46%,–
COc1ccc(SCCN2CCN(CC(C)C)CCC2=O)cc1,inactive: 3.76%,–
N#C/C(=C(/O)CCl)c1nnc2n1CCCCC2,inactive: 3.37%,–
COc1cccc(/C=N/n2c(N)c(S(=O)(=O)c3cccs3)c3nc4ccccc4nc32)c1OC,–,active: 3.66 µM
Cc1ccc2c(c1)N(CC(=O)NCCc1ccc(Cl)cc1)C(=O)c1cccnc1O2,inactive: -1.93%,–
CCOc1cc(/C=N/N=C(\N)c2nonc2N)cc(Br)c1OCc1cccc2ccccc12,–,active: 20.6 µM
Cc1ccc(S(=O)(=O)N2CCC[C@H]2C(=O)NCc2ccccc2Cl)cc1,inactive: -12.7%,–
COc1ccc(-n2nnnc2-c2cnc(N3CCCC3)nc2C(F)(F)F)cc1,–,active: 18.4 µM
CCO[C@H]1OC(C(=O)Nc2ccccc2)=C[C@@H](c2coc3ccccc3c2=O)[C@@H]1CCCO,inactive: -13.6%,–
NCc1ccccc1,inactive: 2.94%,–
COC(=O)c1cc(S(=O)(=O)N2CCN(c3ccc(F)cc3)CC2)cn1C,inactive: -18.5%,–
COc1ccc(OC)c(NC(=O)Cc2c(C)n(C(=O)c3ccc(Cl)cc3)c3ccc(OC)cc23)c1,–,active: 23.1 µM
CCOC(=O)[C@@H]1[C@H]2COc3cc(OC)ccc3[C@H]2N2C(=O)N(c3ccc(F)cc3)C(=O)[C@@]12C,inactive: 4.95%,–
O=C(O)c1ccc(NC(=O)c2cc3ccccc3o2)cc1,inactive: -10.8%,–
COCCCn1c(=O)c2sccc2n2c(CCCC(=O)NCc3ccc(F)cc3)nnc12,inactive: -2.22%,–
Cc1ccc2[nH]c3c(=O)n(CC(=O)NCCc4ccc(Cl)cc4)ncc3c2c1,inactive: 11%,–
C=CC[C@@H](CC(=O)N[C@@H](CO)Cc1ccccc1)C(=O)N[C@H](COC(=O)[C@H](CC=C)CC(=O)OC(C)(C)C)Cc1ccccc1,inactive: 2.9%,–
O=S(=O)(Nc1nc2ccccc2nc1N1CCN(c2ccccc2)CC1)c1ccc(F)cc1,–,active: 25.9 µM
CC1=C(C(=O)OC(C)C)C(c2cn(-c3ccccc3)nc2-c2cccs2)NC(=O)N1 (centres undefined),–,active: 18.4 µM
CCOc1ccc(N(CC(=O)N2CCC(Cc3ccccc3)CC2)S(C)(=O)=O)cc1,–,active: 25.9 µM
O=S(=O)(c1ccc2nc(N3CCN(c4ccccc4F)CC3)ccc2c1)N1CCCCC1,inactive: 6.16%,–
COC(=O)c1[nH]c2ccccc2c1NC(=O)CN1CCN(c2cccc(OC)c2)C(C)C1 (centres undefined),–,active: 25.9 µM
O=C(c1ccc(CS(=O)(=O)c2ccc(Br)cc2)o1)N1CCN(c2ccc(F)cc2)CC1,inactive: -0.927%,–
CC(=O)C[C@H](O)CC(=O)[C@@H]1OC(=O)[C@@H](C)C/C=C\Cc2ccccc21,inactive: 3.57%,–

# Source: PubChem BioAssay AID504444 (National Center for Advancing Translational Sciences (NCATS), 2011)
